Measured values as given in the supplement of paper PMC12217912.
This is one part of the list. Sequences were assembled here from the parent chain. Values near 0.05 are background.

B1: TEV protease; numbered along this chain (parent)
chain: MGESLFKGPRDYNPISSSICHLTNESDGHTTSLYGIGFGPFIITNKHLFRRNNGTLVVQSLHGVFKVKDTTTLQQHLVDGRDMIIIRMPKDFPPFPQKLKFREPQREERICLVTTNFQTKSMSSMVSDTSCTFPSGDGIFWKHWIQTKDGQCGSPLVSTRDGFIVGIHSASNFTNTNNYFTSVPKNFMELLTNQEAQQWVSGWRLNADSVLWGGHKVFMVKPEEPFQPVKEATQL

Variants of: B1
Assay: raw area under fraction-flipped curve 0-4 h after induction (AUC4h, not background-subtracted), DNA-recorder readout of cleavage of the substrate (dimensionless); higher = more cleavage of the substrate by the protease variant
Conditions: temperature: 34 °C; time window: 0-4 h after rhamnose induction
Method: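 In vivo DNA recorder in E. coli TOP10(DE3) ΔrhaA at 34 °C. Each TEVp single-site mutant (parent TEVp 0) is paired with a single-site variant of the 7-mer TEVs (canonical ENLYFQ|S). The substrate sits between flexible linkers in a Bxb1-sfGFP-TEVs-SsrA fusion, so cleavage stabilises Bxb1 and speeds flipping of a recombination array, read by NGS. The value is the raw area under the fraction-flipped curve over 0-4 h after rhamnose induction (AUC4h), with ≥20 reads per time point. It is not background-subtracted; inactive controls average about 0.047.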
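Note: Bxb1 expression induced with 0.2% (w/v) L-rhamnose at OD600 near 0.5, cultures sampled hourly, flipped fraction per protease–substrate barcode pair counted by paired-end Illumina sequencing.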

Variant	area with substrate ENLAFQS	area with substrate ENLDFQS	area with substrate ENLEFQS	area with substrate ENLHFQS	area with substrate ENLKFQS	area with substrate ENLMFQS	area with substrate ENLNFQS	area with substrate ENLRFQS	area with substrate ENLWFQS	area with substrate ENLCFQS	area with substrate ENLFFQS	area with substrate ENLLFQS	area with substrate ENLPFQS	area with substrate ENLQFQS	area with substrate ENLSFQS	area with substrate ENLVFQS	area with substrate ENLIFQS	area with substrate ENLTFQS	area with substrate ENLGFQS
L156P	0.048	0.0594	0.078	0.0516	0.0525	0.048	0.0507	0.0625	0.0532	–	–	–	–	–	–	–	–	–	–
L156F	0.059	–	0.0602	0.0487	0.0629	–	0.0515	0.0693	–	0.0576	0.064	0.0584	0.0471	0.0523	0.0586	0.0472	–	–	–
S130F	0.0495	–	0.0691	0.0594	–	–	–	–	–	–	0.073	–	–	–	0.0524	–	0.065	0.0547	–
W141L	0.0615	–	–	–	0.0602	–	0.0581	–	–	–	0.0521	0.048	–	–	–	–	–	–	0.0571
W141K	0.0513	0.0574	–	0.0471	0.0567	–	0.0718	0.0644	0.0531	0.0627	0.0589	0.0546	–	–	–	–	–	–	0.0662
P134F	0.0651	–	–	0.0558	0.0603	–	0.0603	0.0603	0.0495	–	0.0779	0.0549	0.0739	0.053	0.0669	0.0677	–	–	0.0824
L191N	0.0568	0.0489	–	–	–	–	–	0.046	0.0378	–	0.0541	0.0451	0.0327	–	0.0578	0.0519	–	0.0449	–
L191H	0.054	0.0675	–	–	0.0492	0.099	0.0582	0.0616	0.0615	–	0.07	–	0.0516	0.0565	–	0.0645	–	0.0317	–
L191W	0.051	–	0.0473	0.055	0.064	–	–	0.0755	0.0449	0.062	–	–	0.0639	0.0663	0.0604	0.057	0.0766	–	0.0601
N177F	0.0846	0.056	–	0.0546	0.0626	0.0568	0.0634	0.066	0.065	0.0577	0.0656	–	–	0.0484	0.0572	0.0494	0.0635	0.0551	0.0703
F180T	0.0593	0.0567	–	0.0682	0.0605	–	0.0728	–	–	–	0.0607	0.0467	–	–	–	–	–	–	–
G138I	0.0405	0.0532	0.0584	–	0.0676	–	0.059	–	–	–	0.0798	–	–	–	–	–	–	–	–
D137G	0.0488	0.0589	–	–	0.0846	–	0.0598	0.063	0.0581	0.0695	0.0879	0.0623	–	0.0603	0.0467	0.0848	0.0816	–	–
D137M	0.0587	0.0572	0.0629	–	0.0769	0.0841	0.071	–	–	0.0857	0.0507	0.0648	0.0542	–	0.0591	–	–	–	–
S201M	0.0786	0.0663	–	0.0741	0.061	0.0654	0.0173	0.0924	0.089	0.0823	0.0691	0.0303	–	–	0.0587	–	0.0831	–	–
N193F	0.0783	0.0676	–	–	0.0635	–	0.0536	–	–	–	–	–	0.054	–	0.0538	0.0551	0.103	–	0.0691

Variant	area with substrate ENLAFQS	area with substrate ENLDFQS	area with substrate ENLEFQS	area with substrate ENLHFQS	area with substrate ENLKFQS	area with substrate ENLMFQS	area with substrate ENLNFQS	area with substrate ENLRFQS	area with substrate ENLWFQS	area with substrate ENLCFQS	area with substrate ENLFFQS	area with substrate ENLLFQS	area with substrate ENLPFQS	area with substrate ENLQFQS	area with substrate ENLSFQS	area with substrate ENLVFQS	area with substrate ENLIFQS	area with substrate ENLTFQS	area with substrate ENLGFQS
F187K	0.0542	0.0486	–	–	0.0735	0.0403	0.0596	–	–	–	–	–	0.0483	0.0597	0.0395	–	0.0435	–	–
Q197L	0.0709	0.0605	0.0613	0.0697	–	–	–	–	–	–	0.0948	0.0635	0.0568	0.0741	–	–	0.0909	0.0325	0.0679
L190V	0.0678	0.0632	0.0745	–	0.0755	–	0.0642	–	0.0642	–	0.0954	–	0.0595	0.0455	0.0425	–	0.0638	–	0.0598
N178L	0.072	0.0549	0.072	–	0.0982	0.0602	0.0783	0.0591	0.0678	–	0.106	0.0819	–	0.0754	0.0537	–	–	–	–
G162Q	0.0602	0.0621	0.0574	0.0624	0.0608	0.0654	0.0616	–	–	0.0701	0.0775	–	–	–	0.0549	–	–	–	–
G162T	0.0551	0.0619	0.0432	0.0576	0.0731	–	0.0726	0.0678	0.069	–	–	0.0808	0.081	–	–	–	0.08	–	–
S158K	0.055	0.0555	–	0.0401	0.0598	–	0.0416	0.0558	0.046	–	0.0539	–	–	0.0486	0.0385	0.0694	0.0469	–	–
S158Q	0.0621	0.0599	–	–	0.0575	–	0.0438	–	–	–	0.0622	–	–	0.0491	0.0508	0.0557	–	–	–
I139K	0.0343	0.0601	0.0485	0.0789	0.0657	0.0844	0.0599	–	–	–	0.066	0.0532	0.087	–	0.0644	–	0.0802	–	0.0759
F163C	0.0568	0.0899	0.083	0.0748	–	–	–	0.0557	0.0543	0.0727	–	–	0.0614	0.0536	0.0729	–	–	0.0649	–
I167M	0.0491	–	0.0766	0.0577	0.0723	–	0.0558	–	0.0278	0.074	0.0647	0.0315	0.0637	–	–	–	0.066	–	0.0687
I167P	0.0576	0.057	0.0617	–	0.0515	–	0.0621	–	–	–	0.0574	0.0731	–	0.0522	0.0515	0.0551	–	–	0.0515
G166H	0.053	0.0458	0.0531	0.0413	0.0493	–	0.0635	0.0648	–	0.0543	0.07	0.0568	0.0468	0.0389	–	0.0862	0.0587	–	0.0323
Q146E	0.0788	–	0.0707	0.0893	0.0744	–	0.0678	–	0.0474	0.0644	0.0822	0.0561	0.0539	0.0731	0.0575	0.0662	0.0761	0.0633	–
Q146Y	0.0613	0.0512	–	0.0671	0.0921	–	0.065	0.0622	0.0614	–	0.0749	0.0755	0.0715	0.0599	0.0588	–	0.0782	0.0636	–
